Over roughly 2,300 sequences, “median log2 fold change of GCK-ALFA target abundance (FLAG IP / Myc IP barcode read proportion)” has its median near 0.095; the lowest 2% begin near -0.47. Some of the results follow.
B1: LC3A_127_213 (protein)
chain: EEKELLEEALKIAEEAEKAVDKIPEEGEKALEKAKKLLKELIKLLKKVPSLKEAKEDAEQALKLLEKLPELDEADREEALEHISMIISGIIIDIESELDK
B2: LC3A_free_46_2369 (protein)
chain: VKAKIDIDFLVETRELAEELAKELKEALEKIAKEYGVKLKIKVEITENPDGTYSLKIEIELEAEDLETLEKAVNAILDEIDKIAEKYNVSYIISVEIIKE
B3: LC3A_3_1501 (protein)
chain: MEEKLKETEELLKKMGASEEVIELALKALKKLLERGYEEAAETLIELLKEMKDLSNELLKEFLEEVLKLLETTDLDEETIKEKIIEIATITKNEAEIEEL
B4: LC3A_147_391 (protein)
chain: WKVEVLIDILTKDATEEIKKRFKELAEELKKEGYEVELKIKEEQIDEETTYIEIEITIIAETKEDAEKAAQKVLDAVDEMEEELKDKILGSIVSVTIEEA
B5: LC3A_17_566 (protein)
chain: MEEIKKEIEELIKELEELIKILEKYDPEAAKEVKELLEKAKKALEEGNLKEAAEYLAEAFRLAADRFSELSEETNGKFSNEEMLANGLELRAIGIIEKLE
B6: LC3A_45_1938 (protein)
chain: MWLATVLLGVPRELGDEALAAARELLDELEARGGPDLKVDRAALEATYAATRDDDVVLLEVKITHPTEEKALAAADELEERLRARLGPRVAAIIEVEKLP
B7: LC3A_28_1116 (protein)
chain: SVAEEIKKKFEEQVEEMLKSGEEKVIEVEIPGTLSLEEVKELAEYVAEKAGEAAEKIPVSIVIDVDKDVSDESIDVIADIAEKLEKEYPNVNVIIALEER
B8: LC3A_free_46_2399 (protein)
chain: YIGTIDVDALAKTKEDAEAMAKEIEEAARKLAKEYGVEVEIEVEIEEEPDGTVFLNVRITARAPDKETLEAFVNALIDEIEKIAEKYNFSVIISYEIEEA

The binders below were run against MAP1LC3A, Q9H492 (assay: median log2 fold change of GCK-ALFA target abundance (FLAG IP / Myc IP barcode read proportion) (log2 ratio); each designed protein is fused to an ALFA-tag nanobody in HEK293 cells to bring the named protein to FLAG-tagged glucokinase (GCK); Myc marks an untargeted standard; higher = target protein stabilised (more abundant)). Details: target protein: 3xFLAG-MCP-GCK-ALFA reporter; HEK293 landing pad (RPLP).
Procedure, shortened: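 Binders fused to an ALFA nanobody were recombined as a library into HEK293 landing-pad cells, which were induced with 2 μg mL^−1 doxycycline and then transfected to express a FLAG-tagged target and a Myc-tagged standard. After 48 h, circular RNA barcodes recovered by anti-FLAG and anti-Myc immunoprecipitation of lysates were reverse transcribed, amplified and sequenced. Each binder's target abundance is the median log2 ratio of FLAG to Myc barcode read proportions, from barcodes present at ≥10^−7 in both replicates, binders carrying ≥3 barcodes per replicate, a 10^−6 pseudocount and pooled replicates.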

| Binder | median log2 fold change |
| --- | --- |
| B1 | -0.0927 |
| B2 | -0.376 |
| B3 | 0.286 |
| B4 | -0.0297 |
| B5 | 0.102 |
| B6 | -0.182 |
| B7 | -0.171 |
| B8 | -0.0856 |

— the supplement of paper PMC12632987
